Here are results for 70 molecules from the supplement of paper PMC4723716.

The structures appear in SMILES notation. ± gives the uncertainty stated by the source. In all, about 9,900 compounds were measured (“viability index relative to DMSO control”: median about 1, lowest 2% from about 0.85 on). The list shows a part of the results.

In the assay the test system is Plasmodium falciparum NF54 stage V gametocytes. The experiment in a line: viability index relative to DMSO control (fraction); higher = less gametocyte killing. The note with it: 2.5 µM, library set: Broad Institute DOS, incubation time: 72 h. The essentials: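 Gametocytes (P. falciparum NF54, stage V) were treated with compound at 2.5 µM for 72 hr at 37°C in low oxygen, in serum-free medium at 0.75% gametocytemia and 1.25% hematocrit. Counts of 20–70 µm2 red particles, taken from one field per well after MitoTracker Red CMXRos with saponin, were divided by the plate mean of solvent-only wells. This ratio is the viability index.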
The molecule `C/C=C/c1ccc([C@@H]2[C@@H](CN(C)C(=O)CC3CC3)N(C(=O)C3CC3)[C@H]2CO)cc1` came in with a viability index of 1.03 ± 0.013. The result for `COCC(=O)Nc1ccc2c(c1)C(=O)N(C)C[C@@H](OC)[C@H](C)CN(C(=O)c1ccncc1)[C@@H](C)CO2` reads 1.07 ± 0.077.

As for `CCCC#Cc1ccc([C@@H]2[C@H]3CN(S(=O)(=O)c4ccccc4C)CC(=O)N3[C@H]2CO)cc1`, the viability index was 1.07 ± 0.058. `COc1cccc(C#Cc2ccc3c(c2)[C@@H]2[C@@H](CCN2C(=O)c2ccccc2F)[C@@H](CO)N3)c1` displayed a viability index of 1.04 ± 0.12. With `CCNC(=O)[C@H]1[C@H](CO)[C@H]2Cn3c(ccc(-c4ccncc4)c3=O)[C@H]2N1Cc1cc(F)ccc1F`, the viability index turned out to be 1.09 ± 0.004. In the case of `OC[C@@H]1[C@@H](c2ccccc2)C2(CN(Cc3ccccn3)C2)N1CCC(F)(F)F`, the viability index was 1.12 ± 0.045.

For the molecule `N#C[C@@H]1[C@H](c2ccc(-c3cncnc3)cc2)[C@@H](CO)N1C(=O)Cc1ccccc1`, the viability index is 1.03 ± 0.071. `CS(=O)(=O)N1[C@H](C#N)[C@@H](c2ccc(-c3ccccc3F)cc2)[C@@H]1CO` had a viability index of 1.15 ± 0.082. Take `CCCNC(=O)N(C)C[C@H]1Oc2cc(C#C[C@H](C)O)ccc2S(=O)(=O)N([C@@H](C)CO)C[C@@H]1C`: the viability index worked out at 1.02 ± 0.041.

The molecule `CN1[C@H](CO)[C@@H]2c3ccccc3N(C(=O)Nc3cc(F)ccc3F)C[C@@H]21` gave a viability index of 0.965 ± 0.081.

For `C[C@H](CO)N1C[C@H](C)[C@@H](CN(C)C(=O)Nc2cccc(C(F)(F)F)c2)OCc2ccccc2-c2ccccc2C1=O`, the viability index was 1.03 ± 0.062.

As for `C[C@H](CO)N1C[C@H](C)[C@H](CN(C)S(=O)(=O)c2cccc(C#N)c2)OCc2cn(nn2)CCCC1=O`, the viability index was determined as 1.08 ± 0.03. The same measure for `COCCN(C[C@H]1[C@H](c2ccccc2)[C@H](CO)N1C(C)=O)C(=O)c1cccnc1`: 1.02 ± 0.032. `COc1ccc2c3c([nH]c2c1)[C@H](CO)N(C[C@]31CCN(Cc2cc(on2)-c2ccccc2)CC1)C(C)=O`: the viability index amounted to 1.02 ± 0.026.

`C[C@H](CO)N1C[C@H](C)[C@H](CN(C)Cc2cccc3c2OCCCO3)OCc2ccccc2-c2ccccc2C1=O` showed a viability index of 1.04 ± 0.039.

Take `Cc1ccc(S(=O)(=O)Nc2ccc3c(c2)C(=O)N(C)[C@@H]2CC[C@@H](CC(=O)NCCc4ccncc4)O[C@@H]2CO3)cc1`: the viability index was 0.9542 ± 0.0036. The result for `CCS(=O)(=O)N1[C@H](CO)[C@H](c2ccc(C#CCC3CCCC3)cc2)[C@@H]1C#N` reads 1.05 ± 0.049; that for `COc1ccccc1C#Cc1ccc([C@H]2[C@H]3CN(C(=O)C4CCC4)CCCCN3[C@H]2CO)cc1`, 0.971 ± 0.013; that for `CCN(C[C@H]1[C@H](c2ccccc2)[C@@H](CO)N1C(C)=O)C(=O)NC1CCCC1`, 1.04 ± 0.11. In the case of `Cc1noc(C)c1NC(=O)Nc1ccc2c(c1)C(=O)N(C)[C@@H]1CC[C@H](CC(=O)N[C@@H]3CCN(Cc4ccccc4)C3)O[C@@H]1CO2`, the viability index was 1.09 ± 0.097.

With `COCCN(C[C@@H]1[C@@H](c2ccccc2)[C@H](CO)N1C(C)=O)C(=O)c1cccnc1`, the viability index turned out to be 1.01 ± 0.012. The result for `CC(C)(C)[S@@](=O)N1Cc2cc(C(=O)NCCc3ccncc3)nc(-c3cccc(-c4cccc(C#N)c4)c3)c2[C@H]1CCO` reads 1.06 ± 0.084; that for `CN1c2ccc(C#Cc3ccccc3F)cc2[C@H]2[C@H](CCN2C(=O)c2cnccn2)[C@H]1CO`, 1.022 ± 0.0037; that for `C[C@@H]1CN([C@H](C)CO)C(=O)c2cc(-c3cccc(C(=O)N(C)C)c3)cnc2O[C@H]1CN(C)C(=O)Cc1ccccn1`, 0.974 ± 0.024. With `Cc1noc(C)c1S(=O)(=O)N(C)C[C@@H]1Oc2c(NC(=O)c3ccc(-c4nccs4)cc3)cccc2C(=O)N([C@H](C)CO)C[C@@H]1C`, the viability index stood at 0.978 ± 0.068. The result for `CC(C)NC(=O)N1[C@H](CO)[C@@H](c2ccccc2)C12CN(C(=O)Cc1cccnc1)C2` reads 1.06 ± 0.038.

The molecule `CN(C)C(=O)c1cccc(-c2ccc([C@@H]3[C@H](CO)N4CCCCN(CC5CCOCC5)C[C@@H]34)cc2)c1` came in with a viability index of 1.09 ± 0.05. Consider `CC(=O)NC[C@H]1[C@@H](c2ccc(C#CC(C)C)cc2)[C@@H](CO)N1Cc1ccccn1`, for which the viability index is 1.01 ± 0.082. The result for `Cc1ccccc1-c1ccc2c(c1)O[C@H](CN(C)C(=O)Nc1ccc(C(F)(F)F)cc1)[C@H](C)CN([C@@H](C)CO)S2(=O)=O` reads 1.09 ± 0.089; that for `O=C(C1CCOCC1)N1CC(=O)N2[C@H](CO)[C@@H](c3ccc(/C=C/c4ccccc4)cc3)[C@H]2C1`, 0.972 ± 0.028. The result for `CO[C@H]1CN(C)C(=O)c2ccc(NC(=O)c3cc(C)on3)cc2OC[C@H](C)NC[C@H]1C` reads 0.98 ± 0.029. The same measure for `CCOC(=O)CCCCCC(=O)Nc1ccc2c(c1)C(=O)N([C@@H](C)CO)C[C@H](C)[C@H](CN(C)C(=O)Nc1ccc(C(F)(F)F)cc1)OCCCC[C@H](C)O2`: 1.052 ± 0.0074. Consider `CCCC#Cc1ccc([C@@H]2[C@@H](CO)N3C(=O)CN(S(=O)(=O)c4ccccc4C)C[C@H]23)cc1`, for which the viability index was found to be 0.99 ± 0.01.

For the molecule `CC(C)c1cn(CC[C@H]2CC[C@@H](NS(=O)(=O)c3ccc(F)cc3)[C@H](CO)O2)nn1`, the viability index was 1.13 ± 0.1. In turn, `O=C(C[C@@H]1C[C@H]2c3cc(NC(=O)NC4CCCC4)ccc3O[C@H]2[C@@H](CO)O1)NCc1ccccc1F` yielded a viability index of 1.11 ± 0.13. The result for `O=C(Cc1cccnc1)N1CC(=O)N2[C@@H](CO)[C@H](c3ccc(C4=CCCCC4)cc3)[C@@H]2C1` reads 0.946 ± 0.03. For `CO[C@H]1CC[C@H]2CCOc3ccc(C#N)cc3C(=O)N(C)C[C@H](c3ccccc3)CC(=O)N(C)C[C@@H]1O2`, the viability index is 1.06 ± 0.056. The same measure for `CO[C@H](CN(C)C(=O)C1CCOCC1)[C@@H](C)CN([C@@H](C)CO)S(=O)(=O)c1ccccc1`: 1.04 ± 0.028. The result for `CO[C@H]1CC[C@@H]2CCOc3c(C#N)cccc3C(=O)N(C)C[C@@H](OC)[C@H](C)C(=O)N(C)C[C@H]1O2` reads 1.02 ± 0.093. The same measure for `COc1cccc(-c2ccc3c(c2)[C@@H]2[C@@H](CCN2S(=O)(=O)C2=NC(C)C=N2)[C@@H](CO)N3C)c1` (stereo not given in full): 1.11 ± 0.084; for `COc1ccc(NC(=O)N2C[C@H](O)COC[C@H]3O[C@@H](CC(=O)N4CCCCC4)CC[C@@H]32)cc1`: 0.996 ± 0.018. Molecule `COCCNC(=O)C[C@H]1CC[C@H]2[C@@H](COC[C@H](O)CN2Cc2ccc(Cl)c(Cl)c2)O1` returned a viability index of 1.02 ± 0.11. As to `COc1ccc2c3c([C@@H](CO)N(Cc4ccccc4)C[C@]33CN(CC4CC4)C3)n(C)c2c1`, the viability index was found to be 0.893 ± 0.22. In turn, `COc1ccc(C[C@@H]2CCn3cc(nn3)COCCCNC2=O)cc1` yielded a viability index of 0.963 ± 0.13.

In turn, `O=C(NCC[C@@H]1CC[C@H](NC(=O)c2ccccc2F)[C@@H](CO)O1)c1cnccn1` gave a viability index of 0.998 ± 0.067. Take `COc1ccccc1CNC(=O)C[C@H]1CC[C@@H]2[C@H](COc3ccc(NC(C)=O)cc3C(=O)N2C)O1`: the viability index came out at 1.01 ± 0.16. With `CC(C)NC(=O)N[C@H]1CC[C@@H](CC(=O)NCCCN(C)C)O[C@H]1CO`, the viability index turned out to be 0.977 ± 0.16. The result for `COc1ccc(C[C@H]2CCn3nncc3COC[C@H](c3ccccc3)NC2=O)cc1` reads 1.01 ± 0.042; that for `C/C=C/c1ccc2c(c1)O[C@H](CN(C)C(=O)Nc1ccc(OC)cc1)[C@H](C)CN([C@@H](C)CO)S2(=O)=O`, 0.988 ± 0.013; that for `Cn1cnc(S(=O)(=O)N[C@H]2CC[C@@H](CC(=O)NCC3CCCCC3)O[C@H]2CO)c1`, 0.957 ± 0.054.

In turn, `O=C(CC(F)(F)F)N1C[C@@H]2[C@H](c3ccccc31)[C@@H](CO)N2C(=O)C1CCCCC1` yielded a viability index of 1.02 ± 0.016.

With `C[C@@H]1CCCCO[C@H](CN(C)C(=O)C2CCCCC2)[C@H](C)CN([C@@H](C)CO)C(=O)c2cc(NS(=O)(=O)c3ccccc3)ccc2O1`, the viability index came to 1.12 ± 0.14.

With `CCCNC(=O)N1[C@H](CO)[C@H](c2ccccc2-c2ccc(OC)cc2)[C@@H]1C#N`, the viability index came to 1.11 ± 0.05.

Regarding `COc1ccc(NC(=O)N(C)C[C@@H]2OCCCC[C@@H](C)Oc3ccc(NC(=O)c4ccncc4)cc3C(=O)N([C@@H](C)CO)C[C@H]2C)cc1`, the viability index was found to be 1.05 ± 0.044. In turn, `C[C@@H]1CN([C@@H](C)CO)C(=O)CCCn2nncc2CO[C@@H]1CN(C)Cc1cccc2c1OCCCO2` showed a viability index of 1.06 ± 0.03. The molecule `C[C@@H]1CCCCO[C@H](CN(C)S(=O)(=O)c2cn(C)cn2)[C@H](C)CN([C@H](C)CO)C(=O)c2cc(N(C)C)ccc2O1` returned a viability index of 1.05 ± 0.021. In the case of `COc1cccc(S(=O)(=O)N2C[C@H](O)COC[C@@H]3O[C@@H](CC(=O)NCCCN4CCOCC4)CC[C@H]32)c1`, the viability index was 0.9917 ± 0.008.

As to `N#C[C@H]1[C@@H](c2ccccc2C2=CCCC2)[C@H](CO)N1C(=O)Cc1ccncc1`, the viability index was determined as 1.07 ± 0.13. With `CN(C)C(=O)c1cccc(-c2ccc([C@@H]3[C@@H]4CN(Cc5ccccc5F)C[C@H]3N4)cc2)c1`, the viability index was 0.977 ± 0.016.

The molecule `CO[C@@H]1CN(C)C(=O)c2cc(NC(=O)C3CCCCC3)ccc2OC[C@H](C)N(Cc2cccnc2)C[C@@H]1C` displayed a viability index of 1.12 ± 0.035. The molecule `COc1ccc2c3c([C@H](CO)N(C[C@]33CCN(CC4CC4)CC3)C(=O)c3ccncc3)n(C)c2c1` came in with a viability index of 1.06 ± 0.035. The result for `C/C=C/c1ccc2n(c1=O)C[C@H]1[C@H](CO)[C@@H](C(=O)Nc3nccs3)N(Cc3cc(F)ccc3F)[C@@H]21.C/C=C\c1ccc2n(c1=O)C[C@H]1[C@H](CO)[C@@H](C(=O)Nc3nccs3)N(Cc3cc(F)ccc3F)[C@@H]21` reads 1.07 ± 0.056; that for `CCCNC(=O)N1CC2(C1)[C@H](c1ccccc1)[C@@H](CO)N2C(=O)CC1CC1`, 1.11 ± 0.072; that for `COc1cccc(C#Cc2ccc([C@H]3[C@@H](C#N)N[C@@H]3CO)cc2)c1`, 1.04 ± 0.026. The molecule `C[C@@H]1CCCCO[C@@H](CN(C)C(=O)Nc2ccccc2)[C@H](C)CN([C@H](C)CO)C(=O)c2cc(NC(=O)Nc3ccccc3)ccc2O1` gave a viability index of 1.09 ± 0.059. The same measure for `CC(C)[C@@H]1COCc2cn(nn2)CCC[C@H](C)C(=O)N1`: 1.02 ± 0.2; for `COc1ccc2c3c([nH]c2c1)[C@@H](CO)N(CC1CCCCC1)C[C@]31CN(C1)C(=O)C1CCOCC1`: 1.02 ± 0.07; for `C[C@@H]1CN([C@@H](C)CO)C(=O)c2ccccc2-c2ccccc2CO[C@H]1CN(C)C(=O)[C@@H](Cc1ccccc1)N(C)C`: 1.042 ± 0.0029. The same measure for `O=S(=O)(c1ccccc1)N1C[C@@H]2[C@H](c3ccccc31)[C@H](CO)N2Cc1ccccn1`: 1.055 ± 0.0016; for `O=C(Nc1ccc(C(F)(F)F)cc1)N[C@@H]1C=C[C@H](CC(=O)N2CCCCC2)O[C@H]1CO`: 1.06 ± 0.12.
